Results: US11123332B2 (priority 2018, dated 2021)

Tested on: patients with major depressive disorder who have clinically significant suicidal ideation
Assay: prospective randomized clinical trial of gaboxadol compared with ketamine in patients at risk of suicide
[1] = gaboxadol group compared with ketamine group

SMILES	day 1 POMS depression subscale scores [1]	day 1 POMS total mood disturbance score [1]	decrease in suicidal ideation at 230 minutes after the infusion [1]	average SSI score at day 1 (gaboxadol group compared with ketamine group, 24 hours after administration)	proportion of responders on the SSI at day 1 (gaboxadol group vs ketamine group)	Cohen's d for the difference in mean group change (SSI) (gaboxadol group vs ketamine group, baseline to day 1)	non-remitters (day 1 SSI) in the group (ketamine group, remission = day 1 SSI >50% below baseline and less than 4)
Oc1noc2c1CCNC2 [gaboxadol, 4,5,6,7-tetrahydroisoxazolo (5,4-c) pyridin-3-ol]	greater improvement	greater improvement	greater	lower	significantly higher	greater than medium effect size	–
CNC1(c2ccccc2Cl)CCCCC1=O (stereo not shown) [ketamine]	–	–	–	–	–	–	35 of 40
